Structures are written as SMILES. The campaign covered roughly 48,000 compounds. About 120 (0.25%) were called active. Another 4% or so got no clear call; they are omitted. Calls come from the whole dose curve; as a rule, active = well fitted activation curve with a large enough effect; inconclusive = small, poorly fitted or top-dose-only effect, or another doubt; inactive = no such curve, though single readings can be large or run the other way. The list shows a part of the results.

The nature of this assay: Primary qHTS for Identification of Small Molecule Activators of Huntingtin-Antisense Promoter Activity. Note: nearly all actives have a fitted effect of over 55% in size. The following applies: HEK293 HTT-AS promoter firefly luciferase reporter (activity 0% = vehicle and -100% = no light), 24 h; series mostly up to 57.5 µM; activity change, positive = activation: at the top concentration. A digest of the protocol: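 HEK293 luciferase promoter-reporter cells (2,500/well) plated 24 h, then compounds added at up to 57.5 uM final for 24 h at 37 °C. Firefly luminescence by Dual-Glo, normalized to vehicle (0%) and zero RLU (-100%).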
Turning to `CCC(CC)C(=O)Nc1cc(-c2nc3cccnc3s2)ccc1C`, the “activity change, positive = activation” value was inactive: -0.639%.

For `Cc1cccc(C)c1OC(=O)CSc1nnc(-c2ccc3c(c2)OCO3)o1`, the “activity change, positive = activation” value is inactive: -12.2%.

Take `CCOC(=O)Cn1c(=O)oc2cc(S(=O)(=O)N3CCN(c4ccc(F)cc4)CC3)ccc21`: the “activity change, positive = activation” value is inactive: -8.61%.

For `COc1ccc(Nc2c(-c3ccsc3)nc3nc(C)cc(C)n23)cc1`, the “activity change, positive = activation” value was inactive: -0.381%.

On to `COc1ccc(CCNC(=O)c2c(C)oc3ncn(CC(C)C)c(=O)c23)c(OC)c1`, for which the “activity change, positive = activation” value is inactive: -12.8%.

As for `Nc1ncnc2c1ncn2[C@@H]1O[C@H](CO)C[C@@H]1O`, the “activity change, positive = activation” value was inactive: -28.7%.

As for `COC(=O)c1cc(C)nc2c1c(=O)nc(SCc1ccccc1Cl)n2C1CC1`, the “activity change, positive = activation” value is inactive: -22.8%.

With `Cc1ccc(OCC(=O)Nc2ccc3nn(-c4ccc(C)cc4)nc3c2)cc1`, the “activity change, positive = activation” value was inactive: 25.9%.

In the case of `Cc1nn(CCC(=O)Nc2ccccc2Br)c(=O)c2nn(-c3ccccc3)c(C)c12`, the “activity change, positive = activation” value is inactive: -2.38%.

For the compound `Cc1cccc(CCNC(=O)CCS(=O)(=O)c2cc3c(cc2C)NC(=O)CO3)c1`, the “activity change, positive = activation” value is inactive: -12%.

Turning to `CCc1nnc2c(Nc3ccccc3Br)nc3ccccc3n12`, the “activity change, positive = activation” value was inactive: -3.54%.

`CCOC(=O)N1CCC2(CC1)OC(=O)C(C)=C2C(=O)NCc1ccccc1OC`: the “activity change, positive = activation” value is inactive: -8.09%.

In the case of `Cn1cnc(S(=O)(=O)N2CCC(C(=O)Nc3ccc(Cl)c(C(F)(F)F)c3)CC2)c1`, the “activity change, positive = activation” value is inactive: -30%.

As for `COc1ccccc1N1CCN(C(=O)CNS(=O)(=O)c2ccc(Br)s2)CC1`, the “activity change, positive = activation” value is inactive: -41.3%.

Regarding `COc1ccc(-c2cc(C(=O)NCCc3ccccc3)c3c(-c4ccc(Cl)cc4)[nH]nc3n2)cc1`, the “activity change, positive = activation” value was inactive: -6.85%.

`C1N2CN3CN1CN(C2)C3`: the “activity change, positive = activation” value was inactive: -0.355%.

`COc1ccc(CCNC(=O)CS(=O)(=O)Cc2nc(-c3cccc(Cl)c3)oc2C)cc1OC`: the “activity change, positive = activation” value was inactive: -25.4%.

With `COc1ccc(CNC(=O)c2cccn2-c2nnc(N3CCCCC3)s2)c(OC)c1`, the “activity change, positive = activation” value is inactive: -4.5%.

For the compound `Cc1cccc(N2C(=O)N(Cc3cccc(C#N)c3)c3ccccc3S2(=O)=O)c1`, the “activity change, positive = activation” value was inactive: -33.3%.

As for `Cc1ccc(CSc2nc3ccncc3n2Cc2nc(-c3ccccc3C)oc2C)cc1`, the “activity change, positive = activation” value is inactive: 0.621%.

In the case of `O=C(CCS(=O)(=O)c1cc(Br)cc2c1N(C(=O)C1CC1)CC2)N1CCN(c2cccc(C(F)(F)F)c2)CC1`, the “activity change, positive = activation” value was inactive: -36.2%.

`O=C(Cn1c(=O)n(Cc2ccc(C(=O)NCc3ccc4c(c3)OCO4)cc2)c(=O)c2ccccc21)Nc1ccccc1F`: the “activity change, positive = activation” value is inactive: -12%.

With `CC(C)N(Cc1nc(-c2ccc(Cl)cc2)no1)C(=O)c1ccco1`, the “activity change, positive = activation” value is inactive: -31.4%.

Regarding `COc1ccc(-n2ccn(CC(=O)Nc3ccc(C)cc3C)c(=O)c2=O)cc1`, the “activity change, positive = activation” value is inactive: -4.91%.

For `COc1ccc(CNC(=O)c2sc3nc4n(c(=O)c3c2C)CCC4)cc1`, the “activity change, positive = activation” value is inactive: 8.08%.

Regarding `CCCc1nnc(NC(=O)C(CC)Sc2nnc3c4ccccc4n(C)c3n2)s1` (centres undefined), the “activity change, positive = activation” value is inactive: -15.4%.

With `COc1ccc2c(c1)c1c(c(=O)n(-c3cccc(C)c3)c(=O)n1CC(=O)NCc1ccc(C)cc1)n2C`, the “activity change, positive = activation” value is inactive: -4.04%.

In the case of `CC(C)(C)c1ccc(C(=O)NC(Cc2c[nH]c3ccccc23)C(=O)OCC(=O)c2ccc(Br)cc2)cc1` (centres undefined), the “activity change, positive = activation” value is inactive: -10.9%.

For `CC(C)OCCCNC(=O)CN1C(=O)c2ccccc2Sc2ncccc21`, the “activity change, positive = activation” value was inactive: -4.51%.

On to `O=C(Nc1cccc2c1CCCC2)N1CCOc2ccc(Cl)cc21`, for which the “activity change, positive = activation” value is inactive: -19.1%.

Regarding `CCCC(=O)Nc1ccc2nc(SCC(=O)N3CCOCC3)sc2c1`, the “activity change, positive = activation” value was inactive: 1.73%.

For the compound `Cc1oc2ncnc(N3CCOCC3)c2c1C(=O)NCc1ccc(Cl)cc1`, the “activity change, positive = activation” value is inactive: -16.7%.

Regarding `N#C/C(=C\c1ccc(-c2cccc(Cl)c2)o1)C(=O)Nc1cccc(C(F)(F)F)c1`, the “activity change, positive = activation” value is inactive: -21%.

Take `Fc1ccc(N2CCN(c3ncnc4[nH]ncc34)CC2)cc1`: the “activity change, positive = activation” value is inactive: -23.8%.

On to `Cc1cccc(C(C)C)c1NC(=O)c1ccc2c(c1)CCCN2S(C)(=O)=O`, for which the “activity change, positive = activation” value was inactive: -12.8%.

Turning to `Cc1cc(Cl)ccc1OCC(=O)N(Cc1ccc(N(C)C)cc1)C1CCS(=O)(=O)C1` (centres undefined), the “activity change, positive = activation” value is inactive: -14.8%.

Regarding `CCCn1cc(S(=O)(=O)c2cccc(Cl)c2)c(=O)c2cc(F)c(N3CCCC3)cc21`, the “activity change, positive = activation” value was inactive: -24.6%.

As to `CCOC(=O)c1cc(-c2ccc(C)cc2)n(CC(=O)Nc2ccc(OC)cc2OC)c1C`, the “activity change, positive = activation” value is inactive: -3.08%.

Consider `Cc1ccc(NC(=O)CSc2nccn2C2CCCC2)cc1Cl`, for which the “activity change, positive = activation” value was inactive: 17.5%.

Consider `Cc1ccc(S(=O)(=O)N(CC(=O)NCCSc2ccc(Cl)cc2)c2cccc(Cl)c2)cc1`, for which the “activity change, positive = activation” value is inactive: -29.6%.

On to `CCN1CCN(C(c2ccc(F)cc2)c2sc3nc(-c4ccco4)nn3c2O)CC1` (centres undefined), for which the “activity change, positive = activation” value was inactive: -9.86%.

For `Cc1ccc(S(=O)(=O)CCC(=O)N2CCN(c3nc4c(C)c(C)ccc4s3)CC2)cc1`, the “activity change, positive = activation” value is inactive: -20%.

Turning to `COc1ccc(N2CCN(C(c3ccc(F)cc3)c3sc4nc(-c5ccco5)nn4c3O)CC2)cc1` (centres undefined), the “activity change, positive = activation” value is inactive: -16%.

On to `Cc1ccc(OCC(=O)Nc2nonc2-c2ccc(Br)cc2)cc1`, for which the “activity change, positive = activation” value is inactive: -5.47%.

Take `CCCCCN(C)CCC(O)(P(=O)(O)O)P(=O)(O)O`: the “activity change, positive = activation” value is inactive: -13.3%.

Regarding `CCc1cc(=O)[nH]c(SCc2nc(-c3ccc(C(F)(F)F)cc3)no2)n1`, the “activity change, positive = activation” value is inactive: -43.5%.

For the compound `CCC(C)NC(=O)c1cnn(-c2cccc(F)c2)c1-n1cccc1` (centres undefined), the “activity change, positive = activation” value is inactive: -16%.

With `CC(=O)N1CCCC1c1nc2ccccc2n1Cc1ccccc1F` (centres undefined), the “activity change, positive = activation” value is inactive: -14.7%.

As to `COc1ccc(Cn2c(=O)c3ccccc3n3c(-c4cccc(OC)c4OC)nnc23)cc1`, the “activity change, positive = activation” value was inactive: -9.31%.
